Reference: paper PMC6262623
These are yes or no findings as the source states them, for the method shown. In cells and extracts the contact can be indirect. Some binding calls cover weakened binding; strength is not graded here. For some assays here: Tags and fused reporters may be left off the sequences shown.

Protein sequences, listed by entry. Tags and fused reporters are not part of them.
UniProt Q8BPU7: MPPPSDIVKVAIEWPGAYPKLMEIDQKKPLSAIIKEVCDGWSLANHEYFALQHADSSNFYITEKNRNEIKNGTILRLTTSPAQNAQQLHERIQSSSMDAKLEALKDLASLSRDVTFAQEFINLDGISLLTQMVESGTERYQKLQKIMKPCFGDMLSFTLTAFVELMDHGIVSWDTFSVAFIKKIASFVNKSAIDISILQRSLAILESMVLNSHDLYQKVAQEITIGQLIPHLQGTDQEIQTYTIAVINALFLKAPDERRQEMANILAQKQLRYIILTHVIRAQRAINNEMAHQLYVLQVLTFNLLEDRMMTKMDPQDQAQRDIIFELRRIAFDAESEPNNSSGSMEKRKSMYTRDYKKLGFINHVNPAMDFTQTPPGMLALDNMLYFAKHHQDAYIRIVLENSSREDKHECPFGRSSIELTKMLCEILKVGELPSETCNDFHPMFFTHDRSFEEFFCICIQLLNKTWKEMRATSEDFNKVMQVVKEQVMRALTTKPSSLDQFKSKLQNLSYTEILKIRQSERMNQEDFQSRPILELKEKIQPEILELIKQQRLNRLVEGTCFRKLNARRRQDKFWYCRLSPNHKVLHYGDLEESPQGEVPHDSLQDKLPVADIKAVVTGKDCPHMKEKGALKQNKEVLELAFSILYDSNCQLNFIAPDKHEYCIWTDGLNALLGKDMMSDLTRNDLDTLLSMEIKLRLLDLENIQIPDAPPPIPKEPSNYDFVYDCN

T1: Ephexin4 amino acids 280–628 (murine) (UniProt Q3U5C8)
T1 sequence: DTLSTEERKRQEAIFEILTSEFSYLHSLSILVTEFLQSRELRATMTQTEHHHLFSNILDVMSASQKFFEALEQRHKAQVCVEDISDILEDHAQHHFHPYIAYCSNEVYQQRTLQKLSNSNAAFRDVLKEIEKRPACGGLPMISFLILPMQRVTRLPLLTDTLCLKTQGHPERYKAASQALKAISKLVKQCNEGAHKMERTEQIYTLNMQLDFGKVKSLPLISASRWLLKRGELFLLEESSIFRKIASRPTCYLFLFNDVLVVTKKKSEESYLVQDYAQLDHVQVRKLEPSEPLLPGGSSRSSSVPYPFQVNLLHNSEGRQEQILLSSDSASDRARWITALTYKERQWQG

T2: Ephexin4 amino acids 280–628 with the E295A mutation (murine) (UniProt Q3U5C8)
T2 sequence: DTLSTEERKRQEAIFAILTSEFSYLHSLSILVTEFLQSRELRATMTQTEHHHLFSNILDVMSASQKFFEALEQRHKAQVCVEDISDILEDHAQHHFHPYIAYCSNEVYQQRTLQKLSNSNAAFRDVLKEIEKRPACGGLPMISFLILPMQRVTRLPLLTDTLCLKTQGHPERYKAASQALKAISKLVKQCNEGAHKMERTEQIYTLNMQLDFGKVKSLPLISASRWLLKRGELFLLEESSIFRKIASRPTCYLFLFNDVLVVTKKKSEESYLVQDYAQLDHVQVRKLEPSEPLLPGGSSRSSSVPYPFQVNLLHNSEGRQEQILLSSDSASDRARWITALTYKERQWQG

T3: FLAG-tagged Ephexin4^P271A (murine) (UniProt Q3U5C8)
T3 sequence: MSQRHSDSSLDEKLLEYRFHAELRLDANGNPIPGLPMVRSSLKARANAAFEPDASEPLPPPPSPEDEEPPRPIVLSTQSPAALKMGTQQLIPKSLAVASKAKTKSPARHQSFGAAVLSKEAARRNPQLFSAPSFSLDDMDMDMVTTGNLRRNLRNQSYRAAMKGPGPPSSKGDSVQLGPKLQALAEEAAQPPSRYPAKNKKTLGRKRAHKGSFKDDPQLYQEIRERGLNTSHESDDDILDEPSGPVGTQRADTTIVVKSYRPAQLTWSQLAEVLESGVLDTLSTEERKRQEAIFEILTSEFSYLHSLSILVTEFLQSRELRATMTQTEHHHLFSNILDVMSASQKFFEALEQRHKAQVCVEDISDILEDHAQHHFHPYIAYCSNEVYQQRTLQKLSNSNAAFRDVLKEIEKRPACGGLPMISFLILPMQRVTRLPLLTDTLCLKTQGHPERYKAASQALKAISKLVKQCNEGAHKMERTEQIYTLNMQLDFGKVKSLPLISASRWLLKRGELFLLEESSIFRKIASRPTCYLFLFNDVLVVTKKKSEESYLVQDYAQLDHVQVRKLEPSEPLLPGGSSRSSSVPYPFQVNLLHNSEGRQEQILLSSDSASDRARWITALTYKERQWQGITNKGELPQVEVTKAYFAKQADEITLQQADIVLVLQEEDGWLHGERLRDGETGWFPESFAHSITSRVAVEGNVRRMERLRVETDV


Key:
[1] = target: T1, Ephexin4 amino acids 280–628 (murine); assay: co-IP; 293T cells co-transfected, lysed after 2 days (50 mM Tris pH 7.6, 150 mM NaCl, 1% Triton X-100); lysates incubated with FLAG-conjugated agarose beads 2 h at 4 °C, five washes, immunoblotting
[2] = target: T2, Ephexin4 amino acids 280–628 with the E295A mutation (murine); assay: as above
[3] = target: FLAG-tagged Ephexin4^E295A (murine) (UniProt Q3U5C8); assay: as above
[4] = target: T3, FLAG-tagged Ephexin4^P271A (murine); assay: as above
[5] = target: FLAG-tagged wild-type Ephexin4 (murine) (UniProt Q3U5C8); assay: as above
[6] = target: wild-type Ephexin4 (tag not told for the experiment) (murine) (UniProt Q3U5C8); assay: cross-linking; 293T cells transfected, resuspended in PBS pH 8.0, 0.1 mM DSS (or DMSO) 30 min at room temperature, stopped with 20 mM Tris, lysed, immunoblotting
[7] = target: full-length Elmo1 (UniProt Q8BPU7); assay: co-IP; 293T cells co-transfected, lysed after 2 days (50 mM Tris pH 7.6, 150 mM NaCl, 1% Triton X-100); lysates incubated with FLAG-conjugated agarose beads 2 h at 4 °C, five washes, immunoblotting
[8] = target: Ephexin4^E295A (tag not told for the experiment) (murine) (UniProt Q3U5C8); assay: cross-linking; 293T cells transfected, resuspended in PBS pH 8.0, 0.1 mM DSS (or DMSO) 30 min at room temperature, stopped with 20 mM Tris, lysed, immunoblotting

binding [3]	binding [4]	binding [7]	Binder	also measured
			SH3 domain of Ephexin4 (domain or fragment, UniProt Q3U5C8 633-693) GELPQVEVTKAYFAKQADEITLQQADIVLVLQEEDGWLHGERLRDGETGWFPESFAHSITS	binding [1]: binds; binding [2]: no binding
no binding	binds		GFP-tagged wild-type Ephexin4 (protein, UniProt Q3U5C8 1-713) MSQRHSDSSLDEKLLEYRFHAELRLDANGNPIPGLPMVRSSLKARANAAFEPDASEPLPPPPSPEDEEPPRPIVLSTQSPAALKMGTQQLIPKSLAVASKAKTKSPARHQSFGAAVLSKEAARRNPQLFSAPSFSLDDMDMDMVTTGNLRRNLRNQSYRAAMKGPGPPSSKGDSVQLGPKLQALAEEAAQPPSRYPAKNKKTLGRKRAHKGSFKDDPQLYQEIRERGLNTSHESDDDILDEPSGPVGTQRADTTIVVKSYRPAQLTWSQLPEVLESGVLDTLSTEERKRQEAIFEILTSEFSYLHSLSILVTEFLQSRELRATMTQTEHHHLFSNILDVMSASQKFFEALEQRHKAQVCVEDISDILEDHAQHHFHPYIAYCSNEVYQQRTLQKLSNSNAAFRDVLKEIEKRPACGGLPMISFLILPMQRVTRLPLLTDTLCLKTQGHPERYKAASQALKAISKLVKQCNEGAHKMERTEQIYTLNMQLDFGKVKSLPLISASRWLLKRGELFLLEESSIFRKIASRPTCYLFLFNDVLVVTKKKSEESYLVQDYAQLDHVQVRKLEPSEPLLPGGSSRSSSVPYPFQVNLLHNSEGRQEQILLSSDSASDRARWITALTYKERQWQGITNKGELPQVEVTKAYFAKQADEITLQQADIVLVLQEEDGWLHGERLRDGETGWFPESFAHSITSRVAVEGNVRRMERLRVETDV	binding [5]: binds
		binds	wild-type Ephexin4 (tag not told for the experiment) (protein, UniProt Q3U5C8 1-713) MSQRHSDSSLDEKLLEYRFHAELRLDANGNPIPGLPMVRSSLKARANAAFEPDASEPLPPPPSPEDEEPPRPIVLSTQSPAALKMGTQQLIPKSLAVASKAKTKSPARHQSFGAAVLSKEAARRNPQLFSAPSFSLDDMDMDMVTTGNLRRNLRNQSYRAAMKGPGPPSSKGDSVQLGPKLQALAEEAAQPPSRYPAKNKKTLGRKRAHKGSFKDDPQLYQEIRERGLNTSHESDDDILDEPSGPVGTQRADTTIVVKSYRPAQLTWSQLPEVLESGVLDTLSTEERKRQEAIFEILTSEFSYLHSLSILVTEFLQSRELRATMTQTEHHHLFSNILDVMSASQKFFEALEQRHKAQVCVEDISDILEDHAQHHFHPYIAYCSNEVYQQRTLQKLSNSNAAFRDVLKEIEKRPACGGLPMISFLILPMQRVTRLPLLTDTLCLKTQGHPERYKAASQALKAISKLVKQCNEGAHKMERTEQIYTLNMQLDFGKVKSLPLISASRWLLKRGELFLLEESSIFRKIASRPTCYLFLFNDVLVVTKKKSEESYLVQDYAQLDHVQVRKLEPSEPLLPGGSSRSSSVPYPFQVNLLHNSEGRQEQILLSSDSASDRARWITALTYKERQWQGITNKGELPQVEVTKAYFAKQADEITLQQADIVLVLQEEDGWLHGERLRDGETGWFPESFAHSITSRVAVEGNVRRMERLRVETDV	binding [6]: binds
		no binding	Ephexin4^E295A (tag not told for the experiment) (protein, UniProt Q3U5C8 1-713) MSQRHSDSSLDEKLLEYRFHAELRLDANGNPIPGLPMVRSSLKARANAAFEPDASEPLPPPPSPEDEEPPRPIVLSTQSPAALKMGTQQLIPKSLAVASKAKTKSPARHQSFGAAVLSKEAARRNPQLFSAPSFSLDDMDMDMVTTGNLRRNLRNQSYRAAMKGPGPPSSKGDSVQLGPKLQALAEEAAQPPSRYPAKNKKTLGRKRAHKGSFKDDPQLYQEIRERGLNTSHESDDDILDEPSGPVGTQRADTTIVVKSYRPAQLTWSQLPEVLESGVLDTLSTEERKRQEAIFAILTSEFSYLHSLSILVTEFLQSRELRATMTQTEHHHLFSNILDVMSASQKFFEALEQRHKAQVCVEDISDILEDHAQHHFHPYIAYCSNEVYQQRTLQKLSNSNAAFRDVLKEIEKRPACGGLPMISFLILPMQRVTRLPLLTDTLCLKTQGHPERYKAASQALKAISKLVKQCNEGAHKMERTEQIYTLNMQLDFGKVKSLPLISASRWLLKRGELFLLEESSIFRKIASRPTCYLFLFNDVLVVTKKKSEESYLVQDYAQLDHVQVRKLEPSEPLLPGGSSRSSSVPYPFQVNLLHNSEGRQEQILLSSDSASDRARWITALTYKERQWQGITNKGELPQVEVTKAYFAKQADEITLQQADIVLVLQEEDGWLHGERLRDGETGWFPESFAHSITSRVAVEGNVRRMERLRVETDV	binding [8]: no binding
no binding			GFP-tagged Ephexin4^E295A (protein, UniProt Q3U5C8 1-713) MSQRHSDSSLDEKLLEYRFHAELRLDANGNPIPGLPMVRSSLKARANAAFEPDASEPLPPPPSPEDEEPPRPIVLSTQSPAALKMGTQQLIPKSLAVASKAKTKSPARHQSFGAAVLSKEAARRNPQLFSAPSFSLDDMDMDMVTTGNLRRNLRNQSYRAAMKGPGPPSSKGDSVQLGPKLQALAEEAAQPPSRYPAKNKKTLGRKRAHKGSFKDDPQLYQEIRERGLNTSHESDDDILDEPSGPVGTQRADTTIVVKSYRPAQLTWSQLPEVLESGVLDTLSTEERKRQEAIFAILTSEFSYLHSLSILVTEFLQSRELRATMTQTEHHHLFSNILDVMSASQKFFEALEQRHKAQVCVEDISDILEDHAQHHFHPYIAYCSNEVYQQRTLQKLSNSNAAFRDVLKEIEKRPACGGLPMISFLILPMQRVTRLPLLTDTLCLKTQGHPERYKAASQALKAISKLVKQCNEGAHKMERTEQIYTLNMQLDFGKVKSLPLISASRWLLKRGELFLLEESSIFRKIASRPTCYLFLFNDVLVVTKKKSEESYLVQDYAQLDHVQVRKLEPSEPLLPGGSSRSSSVPYPFQVNLLHNSEGRQEQILLSSDSASDRARWITALTYKERQWQGITNKGELPQVEVTKAYFAKQADEITLQQADIVLVLQEEDGWLHGERLRDGETGWFPESFAHSITSRVAVEGNVRRMERLRVETDV	
	binds		GFP-tagged Ephexin4^P271A (protein, UniProt Q3U5C8 1-713) MSQRHSDSSLDEKLLEYRFHAELRLDANGNPIPGLPMVRSSLKARANAAFEPDASEPLPPPPSPEDEEPPRPIVLSTQSPAALKMGTQQLIPKSLAVASKAKTKSPARHQSFGAAVLSKEAARRNPQLFSAPSFSLDDMDMDMVTTGNLRRNLRNQSYRAAMKGPGPPSSKGDSVQLGPKLQALAEEAAQPPSRYPAKNKKTLGRKRAHKGSFKDDPQLYQEIRERGLNTSHESDDDILDEPSGPVGTQRADTTIVVKSYRPAQLTWSQLAEVLESGVLDTLSTEERKRQEAIFEILTSEFSYLHSLSILVTEFLQSRELRATMTQTEHHHLFSNILDVMSASQKFFEALEQRHKAQVCVEDISDILEDHAQHHFHPYIAYCSNEVYQQRTLQKLSNSNAAFRDVLKEIEKRPACGGLPMISFLILPMQRVTRLPLLTDTLCLKTQGHPERYKAASQALKAISKLVKQCNEGAHKMERTEQIYTLNMQLDFGKVKSLPLISASRWLLKRGELFLLEESSIFRKIASRPTCYLFLFNDVLVVTKKKSEESYLVQDYAQLDHVQVRKLEPSEPLLPGGSSRSSSVPYPFQVNLLHNSEGRQEQILLSSDSASDRARWITALTYKERQWQGITNKGELPQVEVTKAYFAKQADEITLQQADIVLVLQEEDGWLHGERLRDGETGWFPESFAHSITSRVAVEGNVRRMERLRVETDV	
